Out of some 39,000 compounds screened, about 220 (0.56%) showed activity. This is one part of the list.
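Note: static incubation at 37 °C against the wild-type strain, values averaged over two biological replicates.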

In this experiment the test system is Escherichia coli K-12 BW25113. Nature of the experiment: relative growth (OD600 normalised to plate interquartile mean) (fraction); higher = less growth inhibition, active = 0.2 or less. Conditions: 50 µM; LB; incubation time: overnight (16-24 h).
Regarding `C[C@@H]1CN([C@H](C)CO)C(=O)c2cc(C#CC3(O)CCCC3)cnc2O[C@@H]1CN(C)C(=O)C1CCOCC1`, the relative growth is inactive: 1.01.

Consider `COc1ccc(S(=O)(=O)N(C)C[C@@H]2OCCCC[C@@H](C)Oc3ccc(NS(C)(=O)=O)cc3C(=O)N([C@H](C)CO)C[C@H]2C)cc1`, for which the relative growth was inactive: 0.994. The figure for `COc1cccc(C#Cc2ccc([C@@H]3[C@H](CO)N4C(=O)CN(S(=O)(=O)c5ccccc5C)C[C@@H]34)cc2)c1` is inactive: 1.02; for `NC(=O)c1c(F)c(F)c(N)c(F)c1F` it is inactive: 0.986; for `Cc1noc(C)c1S(=O)(=O)Nc1cccc2c1O[C@@H](CN(C)S(=O)(=O)c1ccccc1)[C@@H](C)CN([C@@H](C)CO)C2=O` it is inactive: 0.989. The figure for `CCCCCNCC(N)=O` is inactive: 1.03. The figure for `C[C@H]1CN([C@@H](C)CO)C(=O)c2cc(C3=CCCCC3)cnc2O[C@@H]1CN(C)C(=O)CN1CCOCC1` is inactive: 0.985; for `C[C@H](CO)N1C[C@H](C)[C@@H](CN(C)C(=O)Nc2ccccc2)Oc2ccc(NC(=O)Nc3cccc4ccccc34)cc2CC1=O` it is inactive: 1.03; for `CC(C)NC(=O)Nc1ccc2c(c1)C(=O)N([C@@H](C)CO)C[C@@H](C)[C@H](CN(C)S(=O)(=O)c1cccs1)O2` it is inactive: 0.973. For the molecule `NC(=O)c1cccc(S(N)(=O)=O)c1`, the relative growth is inactive: 1.01. The figure for `C[C@H](CO)N1C[C@H](C)[C@@H](CN(C)C(=O)Nc2cccc3ccccc23)OCCCC[C@H](C)Oc2ccc(NC(=O)c3ccncc3)cc2C1=O` is inactive: 1.01; for `COc1ccc(S(=O)(=O)N(C)C[C@H]2Oc3c(NC(=O)C4CCOCC4)cccc3C(=O)N([C@@H](C)CO)C[C@@H]2C)cc1` it is inactive: 0.997; for `C[C@@H]1CCCCO[C@H](CN(C)S(=O)(=O)c2cn(C)cn2)[C@@H](C)CN([C@@H](C)CO)C(=O)c2cc(N(C)C)ccc2O1` it is inactive: 0.994. For `C[C@H](CO)N1C[C@H](C)[C@@H](CN(C)Cc2cccc3c2OCCCO3)OCc2cnnn2CCCC1=O` the value was inactive: 0.992; for `C[C@H]1CCCCO[C@H](CN(C)S(=O)(=O)c2ccccc2)[C@@H](C)CN([C@@H](C)CO)C(=O)c2cc(NC(=O)NC3CCCCC3)ccc2O1`, inactive: 1.02; for `COc1ccc(S(=O)(=O)N(C)C[C@@H]2Oc3ccc(NC(=O)CCCN(C)C)cc3CC(=O)N([C@@H](C)CO)C[C@H]2C)cc1`, inactive: 1.

On to `C[C@H]1CN([C@@H](C)CO)C(=O)c2cccc(NC(=O)Nc3ccccc3)c2O[C@H]1CN(C)S(C)(=O)=O`, for which the relative growth is inactive: 0.979. `C[C@@H]1CCCCO[C@@H](CN(C)Cc2ccc(C(=O)O)cc2)[C@H](C)CN([C@H](C)CO)C(=O)c2cc(NC(=O)Nc3ccc(F)cc3)ccc2O1`: the relative growth was inactive: 1.02. For `COc1cc(N2CCN(S(C)(=O)=O)CC2)nc(C)n1` the value was inactive: 1.03; for `C[C@H]1CN([C@@H](C)CO)C(=O)Cc2cc(NC(=O)Nc3ccc(F)cc3)ccc2O[C@H]1CN(C)Cc1ccc(-c2ccccc2)cc1`, inactive: 1.04; for `S=C1NCN(C2CCCC2)CN1`, inactive: 1.05. For `C[C@@H]1CN([C@@H](C)CO)C(=O)CCCn2nncc2CO[C@@H]1CN(C)S(=O)(=O)c1cccc(C#N)c1` the value was inactive: 1. The figure for `COc1ccc([Si](C)(C)[C@H]2[C@H](CCn3cc([C@H](O)c4ccccc4)nn3)O[C@@]3(C(=O)N(c4ccccc4)c4ccccc43)[C@@H]2C)cc1` is inactive: 0.895. Turning to `COc1ccc(S(=O)(=O)N(C)C[C@H]2Oc3c(NC(=O)c4cnccn4)cccc3C(=O)N([C@H](C)CO)C[C@H]2C)cc1`, the relative growth is inactive: 0.989. For `COc1ccccc1NC(=O)N(C)C[C@@H]1OCc2ccccc2-c2c(n(C)c3ccccc23)C(=O)N([C@@H](C)CO)C[C@H]1C` the value was inactive: 1.02.

Take `NC(=O)[C@H]1[C@@H]2C(=O)O[C@@H](c3ccccc3)[C@@H](c3ccccc3)N2[C@@H](c2ccccc2OCCO)[C@]12C(=O)Nc1ccc(C#CC3=CCCCC3)cc12`: the relative growth was inactive: 1.03.

Take `C[C@H](CO)N1C[C@H](C)[C@H](CN(C)Cc2ccc(C(F)(F)F)cc2)Oc2ccc(NC(=O)Nc3ccc(F)cc3)cc2C1=O`: the relative growth was inactive: 0.993. The figure for `Nc1nnc(CO)[nH]1` is inactive: 1.02; for `C[C@@H]1CCCCO[C@H](CN(C)C(=O)Nc2cccc3ccccc23)[C@H](C)CN([C@H](C)CO)C(=O)c2cc(NS(=O)(=O)c3ccc(F)cc3)ccc2O1` it is inactive: 1.02; for `COc1ccc(NC(=O)Nc2ccc3c(c2)C(=O)N([C@@H](C)CO)C[C@H](C)[C@@H](CN(C)Cc2ccc(Cl)c(Cl)c2)OCCCC[C@@H](C)O3)cc1` it is inactive: 1.06. In the case of `C[C@H](CO)N1C[C@H](C)[C@@H](CN(C)Cc2ccc3c(c2)OCO3)Oc2c(NC(=O)C3CCOCC3)cccc2C1=O`, the relative growth is inactive: 0.988.

Turning to `C[C@H](CO)N1C[C@H](C)[C@H](CN(C)C(=O)NC2CCCCC2)OCCCC[C@H](C)Oc2ccc(NC(=O)Nc3ccc(F)cc3)cc2C1=O`, the relative growth is inactive: 1.02. Take `COc1ccc(S(=O)(=O)N(C)C[C@H]2Oc3ccc(NS(=O)(=O)c4ccc(F)cc4)cc3CC(=O)N([C@@H](C)CO)C[C@@H]2C)cc1`: the relative growth was inactive: 1.01. For `CC(C)NC(=O)Nc1ccc2c(c1)C(=O)N([C@H](C)CO)C[C@H](C)[C@H](CN(C)C(=O)Nc1cccc3ccccc13)OCCCC[C@@H](C)O2` the value was inactive: 1.01.

Regarding `C[C@H](CO)N1C[C@H](C)[C@@H](CN(C)S(C)(=O)=O)OCc2cnnn2CCCC1=O`, the relative growth was inactive: 1.07.

Regarding `NS(=O)(=O)c1cc(C2(O)NC(=O)c3ccccc32)ccc1Cl` (stereo unspecified), the relative growth is inactive: 0.986. As to `O=C(C[C@@H]1C[C@H]2c3cc(NC(=O)NC4CCCC4)ccc3O[C@H]2[C@H](CO)O1)NCc1ccc(Oc2ccccc2)cc1`, the relative growth is inactive: 0.982. Take `COc1cccc(S(=O)(=O)N2C[C@@H](O)COC[C@H]3O[C@@H](CC(=O)NCCCN4CCOCC4)CC[C@@H]32)c1`: the relative growth is inactive: 1. In the case of `O=C(C[C@@H]1C[C@H]2c3cc(NC(=O)Cc4ccncc4)ccc3O[C@H]2[C@H](CO)O1)NCc1ccc2c(c1)OCO2`, the relative growth was inactive: 0.995. For `COc1ccc(NC(=O)N(C)C[C@H]2Oc3ccc(NC(=O)CCN4CCOCC4)cc3CC(=O)N([C@H](C)CO)C[C@@H]2C)cc1` the value was inactive: 1.01.

In the case of `CCCC(=O)Nc1ccc2c(c1)C(=O)N(C)[C@@H]1CC[C@@H](CC(=O)NCCN3CCCCC3)O[C@H]1CO2`, the relative growth is inactive: 0.966. For `O=C1NN=COc2ccccc21` the value was inactive: 1; for `COc1ccc(NC(=O)N2CCCCN3[C@H](COCCN(C)C)[C@H](c4ccc(C#Cc5ccccc5)cc4)[C@@H]3C2)cc1`, inactive: 0.969; for `O=C(O)/C=C/C(=O)NN1C(=O)c2ccccc2C1=O`, inactive: 1.04. The figure for `CC(C)NC(=O)N(C)C[C@@H]1Oc2ccc(NC(=O)CCC(F)(F)F)cc2C(=O)N([C@@H](C)CO)C[C@@H]1C` is inactive: 0.993. Consider `COC(=O)c1c2oc(c1C(=O)OC)C(=O)N[C@H](Cc1ccccc1)Cn1cc(nn1)CNC(=O)[C@H](Cc1ccccc1)NC(=O)N[C@@H](CO)CC2`, for which the relative growth was inactive: 0.999. Regarding `C[C@H]1CN([C@@H](C)CO)C(=O)c2cccc(NC(=O)C3CCOCC3)c2O[C@@H]1CN(C)S(=O)(=O)c1cn(C)cn1`, the relative growth was inactive: 0.992. The figure for `O=C(O)CNC(=O)C(=O)O` is inactive: 1.02; for `C[C@@H]1CN([C@@H](C)CO)C(=O)Cc2cc(NC(=O)Nc3ccc(C(F)(F)F)cc3)ccc2O[C@H]1CN(C)Cc1ccccc1` it is inactive: 0.956.

Consider `CC(C)NC(=O)N(C)C[C@@H]1OCCCC[C@H](C)Oc2ccc(NC(=O)C3CCCCC3)cc2C(=O)N([C@H](C)CO)C[C@H]1C`, for which the relative growth was inactive: 1.03. For `Cc1ccc(S(=O)(=O)N(C)C[C@H]2Oc3ccc(NC(=O)NC(C)C)cc3C(=O)N([C@H](C)CO)C[C@@H]2C)cc1` the value was inactive: 0.959; for `C[C@@H]1CCCCO[C@H](CN(C)C(=O)Nc2ccc(C(F)(F)F)cc2)[C@H](C)CN([C@H](C)CO)C(=O)c2cc(NS(=O)(=O)c3ccc(Cl)cc3)ccc2O1`, inactive: 1.03; for `CN1CCC(OC(c2ccccc2)c2ccccc2)CC1.Cl`, inactive: 1.02. For `COC1CC2CCC(C)C(O)(O2)C(=O)C(=O)N2CCCCC2C(=O)OC(C(C)CC2CCC(O)C(OC)C2)CC(=O)C(C)C=C(C)C(O)C(OC)C(=O)C(C)CC(C)C=CC=CC=C1C` (stereo unspecified) the value was inactive: 1.01. For `COc1cccc(CNC(=O)C[C@H]2C=C[C@@H](NC(=O)C3CCOCC3)[C@H](CO)O2)c1` the value was inactive: 0.957; for `C[C@H]1CN([C@@H](C)CO)C(=O)CCCn2nncc2CO[C@H]1CN(C)C(=O)c1ccc(N2CCN(C)CC2)cc1`, inactive: 0.987. With `C[C@H](CO)N1C[C@H](C)[C@H](CN(C)C(=O)C2CCCCC2)OCCCC[C@H](C)Oc2ccc(NC(=O)Nc3cccc4ccccc34)cc2C1=O`, the relative growth is inactive: 1.03. As to `CC(O)CN(CCN(CC(C)O)CC(C)O)CC(C)O` (stereo unspecified), the relative growth was inactive: 0.938. For `Cc1noc(C)c1NC(=O)N(C)C[C@@H]1OCCCC[C@H](C)Oc2ccc(NC(=O)CCC(F)(F)F)cc2C(=O)N([C@H](C)CO)C[C@H]1C` the value was inactive: 1. With `Cc1noc(C)c1S(=O)(=O)Nc1ccc2c(c1)CC(=O)N([C@H](C)CO)C[C@H](C)[C@@H](CN(C)C(=O)NC(C)C)O2`, the relative growth is inactive: 0.962.

`COc1ccc(S(=O)(=O)N2C[C@H](O)COC[C@@H]3O[C@H](CC(=O)N[C@@H]4CCN(Cc5ccccc5)C4)CC[C@H]32)cc1`: the relative growth is inactive: 1.

These data come from the supplement of paper PMC9446081.
